From the supplement of paper PMC3334620
Over roughly 33,000 sequences, “E-score (-0.5 to 0.5)” has its median near -0.013; the highest 2% begin near 0.3. Some of the results follow.

Biological target: T1, Msn1 (UniProt P22148)
T1 sequence: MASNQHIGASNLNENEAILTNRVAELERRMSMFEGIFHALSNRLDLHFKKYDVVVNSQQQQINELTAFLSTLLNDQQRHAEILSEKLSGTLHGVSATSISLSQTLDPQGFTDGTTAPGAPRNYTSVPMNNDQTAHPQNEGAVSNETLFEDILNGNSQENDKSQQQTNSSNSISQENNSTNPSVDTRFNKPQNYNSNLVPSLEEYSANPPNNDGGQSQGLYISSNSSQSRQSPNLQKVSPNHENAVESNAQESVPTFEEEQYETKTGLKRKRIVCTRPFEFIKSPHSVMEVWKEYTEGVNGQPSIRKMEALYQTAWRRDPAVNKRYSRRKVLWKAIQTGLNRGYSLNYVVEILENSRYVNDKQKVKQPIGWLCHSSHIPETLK
Assay: PBM E-score (8-mer binding enrichment) (E-score (-0.5 to 0.5)); higher = stronger / more preferred TF binding; most listed sequences are background and not binding sites
Settings: protein concentration: 200 nM; construct: GST-full length
Protocol: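 Universal 'all 10-mer' protein binding microarrays (Agilent AMADID 015681) probed with GST-tagged S. cerevisiae TFs (full-length or DBD) made by in vitro transcription/translation (PURExpress), about 100-200 nM. Bound TF was detected with fluorescent anti-GST. Each ungapped 8-mer (which stands for itself and its reverse complement) is scored by the PBM enrichment score (E-score), a modified Wilcoxon-Mann-Whitney statistic from -0.5 to +0.5, computed with the Universal PBM Analysis Suite. Scale: above 0.35 generally sequence-specific binding.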

Sequence	PBM E-score
CGGACATA	0.469
GGTCGATA	-0.0246
CGACTCCA	-0.0963
GAGATGAC	-0.0938
TATTAGCA	0.0864
ACATGCAC	0.00468
GACAGCCC	-0.172
CCGTAGGC	-0.216
GTCACCGA	-0.0677
GGATAGTA	0.125
CTGATTAC	0.0826
CTAGGGAA	-0.00319
CTATTGGA	0.0335
CTCGACAC	0.0424
CGTTGGTA	0.0538
CACATGTA	0.121
CCCAGTTA	-0.269
ACCGCCCG	-0.349
CTGTATTA	0.186
AGTCTCAT	0.0816
AAGTCGGG	0.1
GACTTTGA	0.0613
CCCAGTGA	-0.0718
ATAATATC	0.25
GACAGATA	0.281

Sequence	PBM E-score
GTCATTAA	0.246
CAGCTACG	-0.186
CGCGGTCC	-0.0855
CATGCTTC	-0.016
AAATGAAC	0.156
GGCAGTTA	-0.0746
CAACGGCA	-0.0227
GATCGCAA	0.129
GCCACGTA	-0.0984
CCCGCAGC	-0.238
GGGAAATA	-0.16
CTATCTGC	-0.1
CCATCGAC	-0.207
ATGGTAAC	0.0897
TAGAAAAA	0.0152
GAACGTCC	0.206
AACTATGA	-0.0095
AGGCCATA	-0.145
ACTTAGTG	-0.0501
ATCGATAC	0.205
AGGATAAC	-0.124
CACCTGGG	-0.252
AGTGATGG	-0.00297
AGCCACGA	-0.181
GTTGGTTA	0.0592

Sequence	PBM E-score
AGTTTACG	-0.0785
AGTCTTAT	0.174
CTACGCAA	-0.138
CCTAGCAG	-0.0737
CTCCGGAC	0.224
AACGCGCG	0.155
ATGGAAAT	0.0754
GGCAGCGA	-0.245
GGGATACA	0.00752
ACCGAGGC	-0.0613
GGTCTCGA	-0.0089
GACGGTCA	-0.153
AGAAATCA	0.116
CCCCTAGA	-0.307
CCACACAC	-0.0382
GTCACAAC	0.0529
GCGAGGAC	0.0256
CGACGGAA	0.0402
CTTGCTTC	0.0255
AGTTCATA	0.042
AAGCACCG	-0.197
GCGCCTGA	0.132
CACTGGAC	0.197
ATAGGGAT	-0.0399
ACTACTTA	0.0469

Sequence	PBM E-score
TCCCGGGA	0.0874
CTCTGGAA	-0.0717
ACAACAAA	0.13
CCTCGGCA	0.184
CGAGCAAA	-0.0767
AAACCGCG	0.177
CCGAGATA	0.138
GGCCAGAA	-0.00479
CAGACGAA	0.275
CGCTTCGA	-0.121
ACGTAGTA	-0.0206
ACGGGCGA	-0.15
AGTGCCAG	-0.305
ACTGATGG	-0.144
ACAGGTGC	-0.225
CACGAAGA	0.104
ATGTCATC	0.341
CCGGTACA	0.319
CAACAGCC	0.0778
AGGGCATG	0.102
ACCGTGAA	0.0388
AGCCTACA	-0.135
CACTCGCC	0.0367
GGGCCTGA	-0.109
ATCTAGCC	-0.0866

Sequence	PBM E-score
ACATTGAA	0.203
CAGACTCG	-0.0374
ACACGCTC	0.00728
GGGGCGCA	-0.142
CTTGCCGA	0.0568
ATTAGCTC	-0.0671
CCGCACCG	0.00645
ATAACCTA	-0.0308
ACCTCAGC	-0.0549
AAGGAATG	-0.066
ATCTTCAA	0.151
AATATGAG	-0.00863
GACGAATA	0.223
CGTACAGA	0.132
ACTGTACC	-0.0495
GAGAGACA	0.246
CGTAATCC	-0.11
AGCCGCAG	-0.298
GTCTGCAA	0.214
AGGGGATC	-0.335
AGCGACCC	-0.268
ATTGTCAG	0.218
AGATAAGG	-0.0875
TAGTGACA	0.277
GGTAGCTA	-0.267

Sequence	PBM E-score
AGGTATAT	0.145
ACAAGCCT	0.1
CTAAGGTA	0.0518
ATTAGCGA	0.0703
ATTACATC	0.112
ACTTGTCC	0.467
ATATTCTG	0.109
CCAGCTCG	-0.151
TCATACAA	0.0685
CTATTGAA	0.154
CGGAGGCC	-0.217
CACTGGCA	-0.00368
AATACGTC	0.165
CTTACGCA	0.0779
ATTCCGAG	0.246
AAGCATTC	-0.0183
CGGGGACC	-0.1
ATTTATGC	-0.069
GACAAAAC	0.451
CTAAGGAC	0.273
TTAAGTAA	0.0355
AGTGTATG	0.0822
AGGCGTCA	-0.264
ACGCTTAG	-0.112
CAGGTTCG	-0.0097

Sequence	PBM E-score
AGACTACA	-0.0509
AATCGTCT	0.174
TCCTCAAA	0.0878
CGCTCCCC	-0.355
ACGATTCA	0.00913
AGGGTAAT	-0.0219
TATGCAAA	0.0819
GGCCGACC	-0.194
AATGCATC	-0.109
AACGGGCA	-0.00073
AGAATATA	-0.0148
AAATGCTA	0.138
CTCACTAC	0.117
AAAAAGCT	0.00709
AATTAGAG	0.177
ACTCAGTG	-0.0835
CCTCGTCA	0.203
CTAGTTGA	0.101
CCCTGTAA	0.0805
AGTCTAAG	0.123
CAGCTTGA	-0.0911
ATTCTCAA	0.148
AGTACATA	0.221
GCAGTTCC	-0.253
CGAGGGCG	-0.271

Sequence	PBM E-score
ACACAGAC	0.274
AGGTTAAA	0.0318
ACCATATC	-0.0262
ATATATGG	0.106
CAAAGATG	-0.0546
TCCTCGCA	-0.212
CCATCCTC	-0.199
AGTCCTGG	0.217
CGCATCTC	-0.0148
AGCACTCG	-0.198
AGGAAAGA	-0.113
ACCCGTCG	-0.337
AACTTTGA	0.12
AGTTTGAC	0.127
ATCAAGAC	0.232
CCACTTCC	-0.0564
ACGGATAA	0.164
CGCGGAAA	0.0573
CAGCGACA	0.121
GAAACACA	0.227
GACCCATC	-0.205
CATTTCGG	0.133
CTGCTGCA	-0.00425
CGCAGAAC	0.0202
CTCTACGA	0.0394

Sequence	PBM E-score
AGCCTCCG	-0.213
TACATAGA	0.117
CAGTGTCA	-0.105
CCACGCTA	-0.00274
ACAGGTTG	0.00529
CCGTTTCA	0.0581
AGAGGGGA	-0.268
GTCTCACA	0.211
AACCGGCG	0.0609
GATTGGAA	0.00883
AAGTCATA	0.263
GATACTAA	0.133
ACGCAAGA	0.0419
GCAACCGC	0.0753
ATGGAAAG	0.0304
CAGGGGGG	-0.464
AGCTATTG	0.00139
CCTACCGC	-0.191
AGGTGTTC	0.0847
